PubChem BioAssay AID624418 (National Center for Advancing Translational Sciences (NCATS), 2012)
Out of some 410,000 compounds screened, about 530 (0.13%) were called active. The inconclusive results got no clear call from the source; some entries with a clear call stand among them for comparison. Calls follow the shape of the dose curve; as a rule, active = well fitted inhibition curve with a large enough effect; inconclusive = small, poorly fitted or top-dose-only effect, or another doubt; inactive = no such curve, though single readings can be large or run the other way. Potencies of inconclusive entries are doubtful fits and often do not repeat.

assay: qHTS of GLP-1 Receptor Inverse Agonists: Cytotox Screen; conditions: HEK293 cAMP-luciferase reporter cells, luminescence, 24 h; activity change, negative = inhibition: at 38.3 µM (top of the series) unless noted
Procedure, shortened: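 1536-well qHTS counterscreen of the MLSMR; 200 cells/uL, 12 h pre-incubation, 23 nL cpd, 24 h at 37 deg C 5% CO2, luciferase detection reagent, 12 min RT, luminescence. Inhibition = undesired.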
% is scaled to controls: 0 for no effect and ±100 for the full control effect; potency is read from the fitted curve at half-maximal effect.

| Compound | activity change, negative = inhibition | Potency |
| --- | --- | --- |
| C/C(=N\NC(=O)c1ccccc1[N+](=O)[O-])c1c(O)cc(C)oc1=O | inactive: 16.5% | – |
| Cc1ccc(S(=O)(=O)N(CC(=O)NCCSc2ccc(Cl)cc2)c2ccccc2C)cc1 | inactive: -2.64% | – |
| CCOC(=O)COc1ccc2ccccc2c1/C=C/[N+](=O)[O-] | – | inconclusive: 10 µM [inhibitor, partial curve] |
| CCOC(=O)N1N=C(c2ccc(OC)cc2)CC1(O)C(F)(F)F (stereo unspecified) | inactive: 6.17% | – |
| Cc1cc(Br)ccc1NC(=O)c1sc2nc3n(c(=O)c2c1C)CCCC3 | inactive: 1.46% | – |
| COc1cccc(/C=C2/CCC(CN(C)C)C2=O)c1 (stereo unspecified) | – | inconclusive: 11.2 µM [inhibitor, partial curve, poor fit] |
| CCc1cc2c(CN(C)Cc3ccccc3F)cc(=O)oc2cc1O | inactive: 452% | – |
| COc1ccc(S(=O)(=O)N2CCCN(S(=O)(=O)c3ccc(OC)c(C)c3)CC2)cc1C | – | inconclusive: 22.4 µM [inhibitor, partial curve, poor fit] |
| CCCCN(CC)c1nc(-c2ccccc2F)nc2ccccc12 | inactive: 5.93% | – |
| Cc1cc(NCc2ccccn2)n2ncc(-c3ccc(Cl)cc3)c2n1 | – | inconclusive: 7.08 µM [inhibitor, partial curve, poor fit] |
| COc1ccc(-n2cc(CNCC3CCOCC3)c(-c3cccc(F)c3)n2)cc1 | – | inconclusive: 11.2 µM [inhibitor, single point] |
| CCOc1cccc(NC(=O)/C(C#N)=C\c2cccnc2)c1 | – | inconclusive: 28.2 µM [inhibitor, single point] |
| CC1(c2ccccn2)Nc2ccccc2-c2nc3ccccc3n21 (stereo unspecified) | inactive: 2.59% | – |
| C/C(=N/Nc1ccnc2cc(Cl)ccc12)c1ccc(N)cc1 | – | inconclusive: 28.2 µM [inhibitor, partial curve, poor fit] |
| COc1cc(NC(=S)Nc2ccccn2)cc(OC)c1OC | – | inconclusive: 11.2 µM [inhibitor, single point] |
| CN(C)CCCN(C(=O)CCc1ccccc1)c1nc2ccc(Cl)cc2s1 | – | inconclusive: 28.2 µM [inhibitor, single point] |
| O=C(Nc1cccc(-c2cn3ccccc3n2)c1)c1cccc(Cl)c1 | – | inconclusive: 28.2 µM [inhibitor, single point] |
| C=CCN1C(=O)NC(c2ccccc2)(C(F)(F)F)S/C1=C(\C#N)c1nnc(N2CCOCC2)n1-c1ccccc1 (stereo unspecified) | – | inconclusive: 5.62 µM [inhibitor, partial curve, poor fit] |
| Cc1cccc(C)c1NC(=S)NCc1ccccc1 | – | inconclusive: 22.4 µM [inhibitor, single point] |
| CC1(C)OC(=O)C(=NNc2ccc(O)cc2)C(=O)O1 | – | inconclusive: 7.94 µM [inhibitor, partial curve, poor fit] |
| CCC(C)NC(=O)Cn1c(=O)n(CCCC(=O)NCc2ccccc2Cl)c(=O)c2ccccc21 (stereo unspecified) | inactive: -11.4% | – |
| C=CCNC(=S)Nc1sc2c(c1C(N)=O)CCCC2 | – | inconclusive: 20 µM [inhibitor, single point] |

| Compound | activity change, negative = inhibition | Potency |
| --- | --- | --- |
| NC(=O)C1(NC(=O)[C@@H]2CC3(CC(c4cccc(NC(=O)c5cc([N+](=O)[O-])cc([N+](=O)[O-])c5)c4)=NO3)CN2C(=O)c2ccccc2)CC1 (stereo partly specified) | – | inconclusive: 2 µM [inhibitor, full curve, poor fit] |
| Cc1ccc2nc(-c3cccc(NS(C)(=O)=O)c3)cc(-c3ccccc3)c2c1 | – | inconclusive: 20 µM [inhibitor, single point] |
| COc1ccc(/C=C2\SC(=S)N(CCC(=O)N3CCCCC3CCO)C2=O)cc1 (stereo unspecified) | – | inconclusive: 12.6 µM [inhibitor, single point] |
| COc1cc2cnc(-c3ccccc3)c(-c3ccc([N+](=O)[O-])cc3)c2cc1OC | – | inconclusive: 0.501 µM [inhibitor, full curve, poor fit] |
| Cc1ccc(CNC(=O)c2ccc(CN3CC(=O)N4CCCCC4C3=O)cc2)cc1 (stereo unspecified) | inactive: -3.31% | – |
| O=C(CSc1nc(-c2ccc(F)cc2)[nH]c1-c1ccc(F)cc1)Nc1ccc2c(c1)OCCO2 | – | inconclusive: 31.6 µM [inhibitor, single point] |
| O=C(CCc1nc2ccccc2c(=O)[nH]1)N1CCN(S(=O)(=O)c2ccccc2Br)CC1 | – | inconclusive: 28.2 µM [inhibitor, single point] |
| C[C@@H](NC(=O)c1ncn(Cc2ccccc2)c1C(=O)N[C@H](C)c1ccccc1)c1ccccc1 | inactive: 2.92% | – |
| CCOC(=O)c1cnc(-n2nc(C)cc2C)nc1NC1CCCC1 | – | inconclusive: 1.41 µM [inhibitor, full curve, poor fit] |
| C/C(=N\O)c1cc(Cl)cc(Cl)c1O | – | inconclusive: 12.6 µM [inhibitor, single point] |
| Cc1cccc(Cn2nc(C(C)(C)C)cc2C(=O)Nc2ccc(F)cc2)c1 | – | inconclusive: 11.2 µM [inhibitor, single point] |
| COC(=O)C1=C(C)Nc2nc(SCc3ccccc3)[nH]c(=O)c2C1c1cccs1 (stereo unspecified) | – | inconclusive: 1.78 µM [inhibitor, full curve] |
| O=C(Nc1ccncc1)c1cc(-c2ccccn2)nc2ccccc12 | – | inconclusive: 14.1 µM [inhibitor, single point] |
| NNC(=O)c1cc(O)c(O)c(O)c1 | – | inconclusive: 31.6 µM [inhibitor, single point] |
| Cc1ccc(NC(=S)NC(=O)C2CCC2)cc1C | – | inconclusive: 8.91 µM [inhibitor, partial curve, poor fit] |
| CC1=NN(C(N)=S)C(=O)C1N=Nc1c(C)cc(C)cc1C (stereo unspecified) | – | inconclusive: 0.355 µM [inhibitor, full curve, poor fit] |
| CC(C)(C)C(C(=O)NCc1ccccc1)N1CCN(CCN2CCOCC2)CC1 (stereo unspecified) | inactive: 3.46% | – |
| CN(C(=O)c1ccc(NC(=O)Cc2cccc(NC(=O)C3CCN(C(=O)C4CCC4)CC3)c2)cc1)C1CCCC1 | – | inconclusive: 28.2 µM [inhibitor, single point] |
| O=C(CN1C(=O)C(=O)N(Cc2ccccc2)C1=O)Nc1cc(Cl)cc(Cl)c1 | – | inconclusive: 20 µM [inhibitor, single point] |
| Cc1ccccc1/C=N/Nc1nc2ccccc2[nH]1 | – | inconclusive: 28.2 µM [inhibitor, single point] |
| COc1ccccc1N1CCN(C(=O)c2ccc3[nH]c4c(c3c2)CC(C)CC4)CC1 (stereo unspecified) | – | inconclusive: 28.2 µM [inhibitor, single point] |
| C=CCN(c1ccccc1OC)S(=O)(=O)c1cccc(C(=O)OCC(=O)c2c[nH]c3ccccc23)c1 | – | inconclusive: 11.2 µM [inhibitor, partial curve, poor fit] |

| Compound | activity change, negative = inhibition | Potency |
| --- | --- | --- |
| COc1ccc(NC(=O)C2CCCN(c3nnc(C)c4c(C)n(-c5ccccc5)nc34)C2)cc1Cl (stereo unspecified) | – | inconclusive: 10 µM [inhibitor, partial curve, poor fit] |
| CCC(C)n1c(=S)[nH]c2ccccc2c1=O (stereo unspecified) | – | inconclusive: 22.4 µM [inhibitor, single point] |
| O=[N+]([O-])c1c(NCCCO)cc(N2CCN(Cc3ccc4c(c3)OCO4)CC2)c2nonc12 | – | inconclusive: 8.91 µM [inhibitor, partial curve] |
| CCN1CCN(c2ccc(S(=O)(=O)N3CCCCC3)cc2NC(=O)/C=C/c2ccc(OC(F)F)cc2)CC1 | – | inconclusive: 22.4 µM [inhibitor, single point] |
| COc1ccc(N2C(N)=C(C#N)C(c3cc(CN4CCOCC4)cs3)C3=C2CCCC3=O)cc1 (stereo unspecified) | inactive: -14.4% | – |
| CC(=O)Nc1ccccc1-c1nc2ccccc2nc1OCC(=O)c1ccc2ccccc2c1 | – | inconclusive: 3.16 µM [inhibitor, single point] |
| COc1ccc(NS(=O)(=O)c2ccc(-n3cccn3)cc2)cc1OC | inactive: -8.1% | – |
| Cn1nc(C(=O)NCCc2ccc(Cl)cc2)c2c1-c1ccccc1SC2 | inactive: -0.451% | – |
| Cn1c(CNc2nc3ccccc3n2CCN2CCCCC2)nc2ccccc21 | inactive: -21.2% | – |
| Cn1c2c(c(=O)n(C)c1=O)C(C(F)(F)F)(C(F)(F)F)N=C(CCC1CCCCC1)N2 | – | inconclusive: 15.8 µM [inhibitor, single point] |
| O=C(N/N=C/c1cn(-c2ccccc2)nc1-c1cccs1)c1ccccc1F | – | inconclusive: 11.2 µM [inhibitor, single point] |
| O=C(Nc1ccccc1F)c1oc2ccccc2c1NC(=O)c1c(F)cccc1F | – | inconclusive: 28.2 µM [inhibitor, single point] |
| CC(Nc1nc(N2CCCCC2)nc2ccccc12)c1ccccc1 (stereo unspecified) | – | inconclusive: 10 µM [inhibitor, partial curve, poor fit] |
| COc1ccc(-c2ccc3oc(-c4ccc(OC)cc4)c(C#CCO)c3c2)cc1 | – | inconclusive: 28.2 µM [inhibitor, single point] |
| O=C(Nc1cccc(C(F)(F)F)c1)Nc1ccc2snnc2c1 | inactive: -25.3% | – |
| CCc1ccc(CN(Cc2cn[nH]c2-c2ccc(OC)cc2)C(=O)Nc2ccc(Br)cc2)cc1 | inactive: -19.4% | – |
| COc1ccc(OCc2cc(C(=O)N(C)Cc3cc(C)no3)no2)c(Cl)c1 | inactive: 2.61% | – |
| CC(C)CN(C(=O)CN1C(=O)NC2(CCc3ccccc32)C1=O)C1CCS(=O)(=O)C1 (stereo unspecified) | inactive: -10.7% | – |
| O=C(NCCCN1CCCC1=O)C1CCN(S(=O)(=O)N2CCOCC2)CC1 | – | inconclusive: 20 µM [inhibitor, single point] |
| CSc1cccc(NC(=S)N2CCC(N(C)C3CCCCC3)CC2)c1 | – | inconclusive: 25.1 µM [inhibitor, single point] |
| Cc1cc(N2CCOCC2)nc2ccc(NC(=O)CCC(=O)N3CCC(C)CC3)cc12 | inactive: -0.203% | – |
| COc1cccc(C(=O)CN2C3=NCCCN3c3ccccc32)c1 | – | inconclusive: 28.2 µM [inhibitor, single point] |
